Reference: PubChem BioAssay (NCI)
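Briefly, cells in 96-well plates were exposed to five compound concentrations for 48 h, and endpoints were estimated by linear interpolation. The concentration for 50% growth inhibition is given as GI50.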 A number of entries come with more than one value. Only these are listed. There may be further records. Records of one sample usually come from different ranges of test concentrations, not given here; a value can be the end of its range.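 TGI denotes the concentration required for complete inhibition of growth.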

How the values were obtained:
Test in all cases: NCI anticancer screen, dose series, 48 h
T-47D breast = tested on: T-47D breast
RXF 393 renal = tested on: RXF 393 renal
KM12 colon = tested on: KM12 colon
SK-OV-3 ovarian = tested on: SK-OV-3 ovarian
SF-539 CNS = tested on: SF-539 CNS
A498 renal = tested on: A498 renal
SK-MEL-5 melanoma = tested on: SK-MEL-5 melanoma
UACC-62 melanoma = tested on: UACC-62 melanoma
PC-3 prostate = tested on: PC-3 prostate
HOP-62 NSCLC = tested on: HOP-62 NSCLC
HS 578T breast = tested on: HS 578T breast
OVCAR-3 ovarian = tested on: OVCAR-3 ovarian
MCF7 breast = tested on: MCF7 breast
786-0 renal = tested on: 786-0 renal
SNB-19 CNS = tested on: SNB-19 CNS
HT29 colon = tested on: HT29 colon
NCI-H522 lung = tested on: NCI-H522 lung
SF-268 CNS = tested on: SF-268 CNS
HCC-2998 colon = tested on: HCC-2998 colon
RPMI-8226 leukemia = tested on: RPMI-8226 leukemia
SN12C renal = tested on: SN12C renal
UO-31 renal = tested on: UO-31 renal
IGROV1 ovarian = tested on: IGROV1 ovarian
CCRF-CEM leukemia = tested on: CCRF-CEM leukemia
COLO 205 colon = tested on: COLO 205 colon
OVCAR-8 ovarian = tested on: OVCAR-8 ovarian
SR leukemia = tested on: SR leukemia
NCI/ADR-RES ovarian = tested on: NCI/ADR-RES ovarian
MALME-3M melanoma = tested on: MALME-3M melanoma
CAKI-1 renal = tested on: CAKI-1 renal
EKVX NSCLC = tested on: EKVX NSCLC
MOLT-4 leukemia = tested on: MOLT-4 leukemia
M14 melanoma = tested on: M14 melanoma
NCI-H23 lung = tested on: NCI-H23 lung
HOP-92 NSCLC = tested on: HOP-92 NSCLC
SK-MEL-28 melanoma = tested on: SK-MEL-28 melanoma
SNB-75 CNS = tested on: SNB-75 CNS
SF-295 CNS = tested on: SF-295 CNS
HL-60(TB) leukemia = tested on: HL-60(TB) leukemia
OVCAR-4 ovarian = tested on: OVCAR-4 ovarian
NCI-H460 lung = tested on: NCI-H460 lung
HCT-15 colon = tested on: HCT-15 colon
SK-MEL-2 melanoma = tested on: SK-MEL-2 melanoma
NCI-H226 lung = tested on: NCI-H226 lung
HCT-116 colon = tested on: HCT-116 colon
K-562 leukemia = tested on: K-562 leukemia

`C=C(Cl)C(Br)(CCl)CCC(Br)C(C)(C)Cl` (stereo not given) was tested, and the TGI (T-47D breast) was 4.74 µM and 74.8 µM.

With `O=c1cc(-c2cccc3ccccc23)[nH]c2ncccc12` the TGI (RXF 393 renal) was 173 nM and > 100 µM, the TGI (KM12 colon) was 495 nM and 36.4 µM and the TGI (SK-OV-3 ovarian) was 741 nM and > 100 µM. The TGI (SF-539 CNS) was 96.5 nM and > 100 µM, the TGI (A498 renal) was 428 nM and 11.7 nM and the TGI (SK-MEL-5 melanoma) was 20.1 nM and 241 nM.

With `COc1cc(NCc2ccc3nc(N)nc(N)c3c2C)cc(OC)c1OC` (tested in a mixture with another compound) the GI50 (UACC-62 melanoma) was 42 nM [1 test] and 0.184 nM [mean of 3 tests], the TGI (UACC-62 melanoma) was 97.1 nM and 6.14 µM and the GI50 (RXF 393 renal) was 10.8 µM [1 test] and 4.94 nM [mean of 2 tests]. For the same compound, the GI50 (PC-3 prostate) was 520 nM [1 test] and 25 nM [mean of 3 tests], the GI50 (KM12 colon) was 93 nM [1 test] and 1.87 nM [mean of 3 tests] and the GI50 (HOP-62 NSCLC) was 77.7 nM [1 test] and 1.26 nM [mean of 4 tests]. For the same compound, the TGI (HOP-62 NSCLC) was 250 nM and 4.04 µM, the TGI (HS 578T breast) was 895 nM and 56.2 µM and the TGI (SK-OV-3 ovarian) was 699 nM and 86.7 µM. The GI50 (OVCAR-3 ovarian) was 38.4 µM [1 test] and 33.8 nM [mean of 4 tests], the GI50 (MCF7 breast) was 40.4 nM [1 test] and 2.03 nM [mean of 3 tests] and the TGI (786-0 renal) was 381 nM and 37.5 µM. The GI50 (SNB-19 CNS) was 803 nM [1 test] and 42.6 nM [mean of 3 tests], the GI50 (HT29 colon) was 17.9 nM [1 test] and 0.178 nM [mean of 3 tests] and the GI50 (NCI-H522 lung) was 178 nM [1 test] and 586 nM [mean of 13 tests] and 9.29 nM [mean of 4 tests]. For the same compound, the TGI (NCI-H522 lung) was 33.5 µM [1 test] and 58 µM [mean of 13 tests] and 678 nM [mean of 4 tests], the GI50 (SF-268 CNS) was 76.1 nM [1 test] and 0.895 nM [mean of 4 tests] and the TGI (HCC-2998 colon) was 912 nM and 25.7 µM. For the same compound, the GI50 (RPMI-8226 leukemia) was 582 nM [1 test] and 3.52 nM [mean of 3 tests], the TGI (RPMI-8226 leukemia) was 4.8 µM and 57.7 µM and the TGI (SN12C renal) was 310 nM and 80.1 µM. For the same compound, the GI50 (SF-539 CNS) was 18.8 nM [1 test] and 0.261 nM [mean of 3 tests], the TGI (SF-539 CNS) was 144 nM, 32.1 µM, 15.4 µM and the GI50 (UO-31 renal) was 68.1 nM [1 test] and 3.33 nM [mean of 3 tests]. The TGI (UO-31 renal) was 370 nM, 783 nM, 103 µM, the GI50 (IGROV1 ovarian) was 59.3 nM [1 test] and 0.273 nM [mean of 4 tests] and the GI50 (CCRF-CEM leukemia) was 28.4 nM [1 test] and 0.301 nM [mean of 4 tests]. The GI50 (COLO 205 colon) was 16.1 µM [1 test] and 8.6 nM [mean of 3 tests], the GI50 (OVCAR-8 ovarian) was 57.3 nM [1 test] and 0.751 nM [mean of 4 tests] and the TGI (OVCAR-8 ovarian) was 249 nM and 33.3 µM. The GI50 (SR leukemia) was 22.2 µM [1 test] and 25 nM [mean of 3 tests], the GI50 (NCI/ADR-RES ovarian) was 452 nM [1 test] and 21.4 nM [mean of 3 tests] and the GI50 (A498 renal) was 98.9 µM [1 test] and 5.78 nM [mean of 3 tests]. The GI50 (MALME-3M melanoma) was 10.1 µM [1 test] and 2.96 nM [mean of 4 tests], the GI50 (SK-MEL-5 melanoma) was 38.5 nM [1 test] and 0.19 nM [mean of 4 tests] and the TGI (SK-MEL-5 melanoma) was 162 nM, 20 µM, 34.6 µM. For the same compound, the GI50 (CAKI-1 renal) was 96 µM [1 test] and 5.6 nM [mean of 4 tests], the TGI (CAKI-1 renal) was 678 nM and 25.4 µM and the GI50 (EKVX NSCLC) was 18.9 µM [1 test] and 766 nM [mean of 11 tests] and 39.9 nM [mean of 3 tests]. The GI50 (MOLT-4 leukemia) was 33.8 nM [1 test] and 0.238 nM [mean of 4 tests], the TGI (M14 melanoma) was 641 nM, 24.1 µM, 38.4 µM and the GI50 (NCI-H23 lung) was 76.2 nM [1 test] and 0.586 nM [mean of 4 tests]. The TGI (NCI-H23 lung) was 369 nM and 38.9 µM, the TGI (HOP-92 NSCLC) was 716 nM and 18.7 µM and the GI50 (SK-MEL-28 melanoma) was 5.19 µM [1 test] and 9.97 nM [mean of 3 tests]. The GI50 (SNB-75 CNS) was 181 nM and 22.3 µM and the TGI (SF-295 CNS) was 490 nM and 29.1 µM.

In the case of `CCC(/C=C/C1OC(=O)C=CC1C)=C\C(C)C/C=C/C(C)=C/C(C)C(=O)C(C)C(O)C(C)C/C(C)=C/C(=O)O` (stereo not given), the TGI (UACC-62 melanoma) is reported as 0.0794 nM and 7.47 µM, the TGI (HOP-62 NSCLC) is reported as 2.81 nM and 6.08 µM and the TGI (HL-60(TB) leukemia) is reported as 0.00696 nM and 3.8 µM. For the same compound, the TGI (OVCAR-3 ovarian) was 0.0895 nM and 1.7 µM, the TGI (MCF7 breast) was 0.00121 nM and 3.39 µM and the TGI (NCI-H522 lung) was 0.031 nM and 4.03 µM. For the same compound, the TGI (HCC-2998 colon) was 0.197 nM and 6.33 µM, the TGI (RPMI-8226 leukemia) was 0.0675 nM and 8.99 µM and the TGI (SF-539 CNS) was 0.016 nM and 3.87 µM. For the same compound, the TGI (UO-31 renal) was 0.46 nM and 6.61 µM, the TGI (OVCAR-4 ovarian) was 0.0157 nM and 6.62 µM and the TGI (CCRF-CEM leukemia) was 1.67 nM and 5.48 µM. For the same compound, the GI50 (NCI-H460 lung) was < 0.001 nM and 701 nM, the TGI (NCI-H460 lung) was 0.114 nM and 2.43 µM and the TGI (COLO 205 colon) was 0.305 nM and 10.4 µM. For the same compound, the TGI (HCT-15 colon) was 0.408 nM and 33.6 µM, the TGI (SK-MEL-2 melanoma) was 0.103 nM and 9.57 µM and the TGI (A498 renal) was 0.0269 nM and 6.28 µM. For the same compound, the TGI (SK-MEL-5 melanoma) was 0.492 nM and 1.44 µM, the TGI (NCI-H226 lung) was 0.641 nM and 3.26 µM and the TGI (CAKI-1 renal) was 3.34 nM and 9.44 µM. For the same compound, the TGI (HCT-116 colon) was 0.0159 nM and 4.29 µM, the TGI (MOLT-4 leukemia) was 0.0466 nM and 5.96 µM and the TGI (K-562 leukemia) was 0.113 nM and 5.99 µM. The TGI (HOP-92 NSCLC) was 0.0416 nM and 18.8 µM and the TGI (SK-MEL-28 melanoma) was 3.21 nM and 10.7 µM.
